{"source": "PubChem BioAssay AID743279", "about": "(National Center for Advancing Translational Sciences (NCATS), 2014)", "note": "In all, about 360,000 compounds went through this assay and about 17,000 (4.7%) were called active. The shares of active, inactive and inconclusive entries below differ from those in the screen. Rule as the data show it: active = activity change below about -50%; inconclusive = mostly about -30% to -49%; inactive = weaker than that. % is scaled to controls: 0 for no effect and ±100 for the full control effect.", "data": [{"assay": "qHTS for Inhibitors of Inflammasome Signaling: IL-1-beta AlphaLISA Primary Screen", "conditions": "THP-1 LPS/ATP IL-1B secretion, 16 h; at 57.5 µM, hits give low values", "procedure,_shortened": "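Secreted IL-1B measured by AlphaLISA bead assay after 16 h compound exposure of THP-1 cells; compounds (final up to 57.5 uM) added 1 h before LPS (250 ng/mL) and ATP (1.25 mM) stimulation; lower signal means less secretion.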", "values": [{"smiles": "Cc1cccc(C(=O)Nc2ccc(C(=O)/C=C/c3cccnc3)cc2)c1", "activity change": "active: -78.2%"}, {"smiles": "COc1ccc2cc(CN(CC3CCCO3)C(=O)Nc3ccccc3)c(=O)[nH]c2c1", "note": "(stereo not given)", "activity change": "inconclusive: -43.8%"}, {"smiles": "Cc1cc([N+](=O)[O-])nn1CCCC(=O)Nc1sc2c(c1C(N)=O)CCCC2", "activity change": "inconclusive: -45.9%"}, {"smiles": "O=C(Nc1ccc([N+](=O)[O-])cc1)c1ccccc1", "activity change": "inactive: -0.777%"}, {"smiles": "Cc1noc(C(=O)Nc2cc(Cl)ccc2O)c1Cl", "activity change": "inactive: 64.4%"}, {"smiles": "Cc1ccc2nc(NC(=O)C3CC3C)sc2c1", "note": "(stereo not given)", "activity change": "inactive: 29.6%"}, {"smiles": "CC(C)(C)OC(=O)C[C@H]1C/C=C\\C[C@@H](CC(=O)N[C@H](CO)Cc2ccccc2)C(=O)NC[C@H](c2ccccc2)OC1=O", "activity change": "inactive: -3.36%"}, {"smiles": "CCCN(C(=O)COC(=O)CCOc1ccccc1)c1c(N)n(Cc2ccccc2)c(=O)[nH]c1=O", "activity change": "inconclusive: -33.3%"}, {"smiles": "O=C(C1=C[C@@H](C2CCCCC2)C[C@@H](OCCCCO)O1)N1CCN(Cc2ccc3c(c2)OCO3)CC1", "activity change": "inconclusive: -45.6%"}, {"smiles": "O=C(C[C@@H]1C=C[C@H](NS(=O)(=O)c2ccccc2F)[C@@H](CO)O1)NCCCN1CCOCC1", "activity change": "inactive: 24.7%"}, {"smiles": "c1ccc2cc(OCCCn3ccnc3)ccc2c1", "activity change": "inconclusive: -47.1%"}, {"smiles": "Cc1cc2ncn(S(=O)(=O)N3CCCCC3)c2cc1C", "activity change": "inconclusive: -36.7%"}, {"smiles": "COc1cc(/C=N/NC(=O)c2cc(-c3ccc4c(c3)OCO4)n[nH]2)ccc1O", "activity change": "active: -154%"}, {"smiles": "CC(=O)Nc1ccc(-c2ccnc3c2CC(C)(C(=O)Nc2ccc(Cl)cc2)O3)cc1", "note": "(stereo not given)", "activity change": "active: -53.1%"}, {"smiles": "COc1ccccc1CN1CCC(n2nccc2NC(=O)c2ccccc2Cl)CC1", "activity change": "inconclusive: -42.8%"}, {"smiles": "COc1ccc(S(=O)(=O)N(C)C[C@H]2Oc3ccc(NC(=O)C4CCCCC4)cc3C(=O)N([C@H](C)CO)C[C@@H]2C)cc1", "activity change": "inactive: 0%"}, {"smiles": "Clc1ccccc1-c1nnc2sc(C3COc4ccccc4O3)nn12", "note": "(stereo not given)", "activity change": "inconclusive: -34.6%"}, {"smiles": "N#Cc1ccc(OCC(=O)N2CCN(c3ccc(C(F)(F)F)cn3)CC2)cc1", "activity change": "inconclusive: -35.2%"}, {"smiles": "CCC(C)(C)n1nnnc1C(c1cccs1)N1CCN(c2nc3ccccc3s2)CC1", "note": "(stereo not given)", "activity change": "active: -62.8%"}, {"smiles": "C/C=C/c1ccc(OCCOc2cccc3cccnc23)c(OC)c1", "activity change": "active: -62%"}, {"smiles": "COc1ccc(CCNc2cc(C)nc3c(-c4ccccc4)cnn23)cc1OC", "activity change": "inconclusive: -33.4%"}, {"smiles": "CCCN1Cc2cccc(C(=O)Nc3ccc(C)cc3)c2C1=O", "activity change": "inconclusive: -36.6%"}, {"smiles": "CCc1nc(SCC(=O)c2ccc3c(c2)OCCO3)c2ccccc2n1", "activity change": "active: -63%"}, {"smiles": "O=C(Cc1c(F)cccc1Cl)Nc1nc2ccccc2s1", "activity change": "active: -57.5%"}, {"smiles": "Cn1c(SCC(=O)NC2CCCc3ccccc32)nnc1C1CC1", "note": "(stereo not given)", "activity change": "inactive: 3.7%"}, {"smiles": "O=C1c2ccc3c4c(ccc(c24)C(=O)N1CCCCO)C(=O)N(CCCCO)C3=O", "activity change": "active: -71.8%"}, {"smiles": "CC(=O)NC(=S)Nc1ccc(NC(=O)COc2ccc(Cl)cc2Cl)cc1", "activity change": "inconclusive: -30.7%"}, {"smiles": "O=C(NCCc1ccccc1)C1CCN(c2ncccn2)CC1", "activity change": "inactive: 4.97%"}, {"smiles": "O=C(c1cnn2c(C(F)(F)F)cc(-c3cccs3)nc12)N1CCN(Cc2ccccc2)CC1", "activity change": "inconclusive: -43.7%"}, {"smiles": "O=C(NN1CCOCC1)c1cc(Cl)ccc1Cl", "activity change": "inactive: -0.0608%"}, {"smiles": "O=C(O)c1ccc(N=NNc2cccc([N+](=O)[O-])c2)cc1", "activity change": "inactive: -1.77%"}, {"smiles": "Cc1ccc2nc(NC(=O)C3CCN(S(=O)(=O)c4cc([N+](=O)[O-])ccc4Cl)CC3)sc2c1", "activity change": "inconclusive: -41%"}, {"smiles": "COC(=O)c1ccc(NC(=O)COc2ccc([N+](=O)[O-])cc2)cc1", "activity change": "inactive: 5.19%"}, {"smiles": "Cc1ccn2c(NC3CCCC3)c(-c3ccccn3)nc2c1", "activity change": "active: -96.2%"}, {"smiles": "CCOC(=O)CS(=O)(=O)c1ccccc1", "activity change": "inconclusive: -32.3%"}, {"smiles": "CC(=O)NC(Cc1ccccc1F)C(=O)NC1CCN(S(=O)(=O)c2ccccc2)CC1", "note": "(stereo not given)", "activity change": "inactive: -2.46%"}, {"smiles": "Cc1cccnc1Nc1nc(-c2ccc(F)cc2)cs1", "activity change": "active: -52%"}, {"smiles": "CC1(C2CC2)NC(=O)N(CC(=O)N2CCN(c3ccccc3)CC2)C1=O", "note": "(stereo not given)", "activity change": "inconclusive: -30.4%"}, {"smiles": "Cc1ccnc2nc(C(=O)OCCOc3ccc(Cl)cc3)nn12", "activity change": "inconclusive: -34.2%"}, {"smiles": "Oc1cccc(Nc2nc(-c3ccccc3Cl)nc3ccccc23)c1", "activity change": "inconclusive: -42.4%"}, {"smiles": "COc1cccc(NC(=O)CSC(N)=O)c1", "activity change": "inconclusive: -47.4%"}, {"smiles": "COc1cccc(NCc2cc(=O)oc3cc(-c4ccccc4)c(O)cc23)c1", "activity change": "inconclusive: -32.7%"}, {"smiles": "COc1cccc(N2CCN(C(=O)c3cc(-c4ccccc4)nc4c3cnn4C(C)C)CC2)c1", "activity change": "inconclusive: -46.8%"}, {"smiles": "O=C(CSc1nnc(-c2ccc(Cl)cc2)n1Cc1ccco1)Nc1ccc2c(c1)OCCO2", "activity change": "inconclusive: -43.7%"}, {"smiles": "CC1(C(=O)NCc2ccccc2)CCC(=O)N1CCc1c[nH]c2ccccc12", "note": "(stereo not given)", "activity change": "inactive: 2.63%"}, {"smiles": "Cn1c(SC(C(=O)Nc2ccc(F)cc2)c2ccccc2)nc2ccccc21", "note": "(stereo not given)", "activity change": "inconclusive: -38.7%"}, {"smiles": "C/C(N)=C(/C#N)C(=O)CSc1nc2ccccc2c(=O)n1CCCOC(C)C", "activity change": "inconclusive: -43.5%"}, {"smiles": "Cc1c(NC(=O)CN2CCN(C(c3ccccc3)c3ccccc3)CC2)c(=O)n(-c2ccccc2)n1C", "activity change": "inactive: -3.36%"}, {"smiles": "Cc1cc(NC(=O)c2cccs2)ncc1NC(=O)C(C)C", "activity change": "inactive: 6.82%"}, {"smiles": "COc1cccc(NC(=O)CC2C(=O)NCCN2C(=S)Nc2ccc(F)cc2)c1", "note": "(stereo not given)", "activity change": "inconclusive: -35.4%"}, {"smiles": "COCCN1CCC(CO)C1", "note": "(stereo not given)", "activity change": "inactive: -0.253%"}, {"smiles": "CCC(C)Sc1ccc(-c2nc3ccc(C)cn3c2NCc2ccccc2)cc1", "note": "(stereo not given)", "activity change": "inconclusive: -31.4%"}, {"smiles": "Cc1ccc(-c2noc(CCC(=O)NCC3CCN(Cc4cccc(C)c4)CC3)n2)cc1", "activity change": "active: -67.1%"}, {"smiles": "CN(C)S(=O)(=O)c1cccc(CSCc2cccc(S(=O)(=O)N(C)C)c2)c1", "activity change": "inconclusive: -45.5%"}, {"smiles": "CCOC(=O)C1=C(CC)Nc2ccccc2N=C1NC(=O)c1oc2ccccc2c1C", "activity change": "inconclusive: -30.1%"}, {"smiles": "COc1ccc(C(CNC(=O)COc2ccccc2-c2ccccc2)N2CCOCC2)cc1", "note": "(stereo not given)", "activity change": "inconclusive: -30.3%"}, {"smiles": "Cc1cc(C)c(-c2c(O)c3cccnc3n(C)c2=O)c(C)c1", "activity change": "inactive: -7.3%"}, {"smiles": "CC(c1nc2ccccc2[nH]1)n1c(=O)c(-c2cccs2)nc2ccccc21", "note": "(stereo not given)", "activity change": "inconclusive: -33.5%"}, {"smiles": "CN1C(=O)CSC1=NCC12CC3CC(CC(C3)C1)C2", "activity change": "inconclusive: -37.6%"}, {"smiles": "CC(C)c1nc(SCC(=O)N2CCCC2)c2ccccc2n1", "activity change": "inconclusive: -37.2%"}, {"smiles": "N#Cc1nc(COc2ccc(Br)cc2)oc1N1CCN(Cc2ccccc2)CC1", "activity change": "inconclusive: -40.9%"}, {"smiles": "Cc1ccc(-n2c(-c3ccccc3)c[n+]3c2CCc2ccccc2-3)c(C)c1", "activity change": "active: -99.5%"}, {"smiles": "NC(=S)NN=Cc1nccc2c(C(F)(F)C(F)(F)C(F)(F)F)cccc12", "activity change": "inactive: 117%"}, {"smiles": "O=Cc1ccccc1Oc1nc(N2CCOCC2)nc(N2CCOCC2)n1", "activity change": "inconclusive: -32.5%"}, {"smiles": "O=C1C(Cl)=C(N2CCCCCC2)C(=O)N1c1ccccc1", "activity change": "inconclusive: -31.5%"}, {"smiles": "COc1cc(S(=O)(=O)N2CCCCC2)ccc1NC(=O)/C=C/c1ccccc1", "activity change": "inconclusive: -41.1%"}, {"smiles": "COc1cc(C(=O)NCCC(C)C)ccc1OCc1ccc(Cl)cc1Cl", "activity change": "inconclusive: -32.5%"}, {"smiles": "O=C(NC1CCCC1)C(c1ccncc1)N(C(=O)c1ccco1)c1ccc(F)c(Cl)c1", "note": "(stereo not given)", "activity change": "inconclusive: -39.2%"}, {"smiles": "Cc1cc(O)ccc1C1(c2ccc(O)cc2C)OC(=O)c2ccccc21", "activity change": "inconclusive: -34.8%"}, {"smiles": "FC(F)(F)c1nnc2c(Sc3ccccc3)nc3ccccc3n12", "activity change": "inconclusive: -30.6%"}, {"smiles": "N#CC1C=Cc2c(ccc3ccccc23)N1C(=O)c1ccccc1", "note": "(stereo not given)", "activity change": "active: -66.2%"}, {"smiles": "CCCCC(=O)N(C)c1c(CC)nc2c(OCCC3CCCCC3)cccn12", "activity change": "active: -67.8%"}, {"smiles": "COc1ccc(-c2nc3c(C)cc(Br)cn3c2Cc2cccc(F)c2)cc1OC", "activity change": "inconclusive: -36.4%"}, {"smiles": "CCCOc1ccc(NC(=O)CC2C(=O)N(Cc3ccccc3)C(=S)N2Cc2cccs2)cc1", "note": "(stereo not given)", "activity change": "inconclusive: -46.5%"}, {"smiles": "CC/C=C/C(=O)N1CC2(CC(c3cccc(NC(=O)CC(c4ccccc4)c4ccccc4)c3)=NO2)C[C@@H]1C(N)=O", "note": "(stereo not given in full)", "activity change": "inconclusive: -49.1%"}, {"smiles": "CN1CC(=O)NC1=NC(=O)c1ccc(Cl)c(S(=O)(=O)N2CCCCCC2)c1", "activity change": "inactive: 4.46%"}, {"smiles": "Cc1cccc(CN2CCN(C(=O)c3cccc4ccccc34)CC2)c1", "activity change": "inactive: -25.3%"}, {"smiles": "COC(=O)[C@@]12C[C@@H](CC(=O)NCCCCc3ccccc3)C(=O)N(Cc3cccc4ccccc34)C1=CCC(C)(C)C2", "activity change": "inconclusive: -43.1%"}, {"smiles": "CC1=C(C(=O)OCc2ccccc2)C(/C=C/c2ccccc2)NC(=S)N1", "note": "(stereo not given)", "activity change": "inconclusive: -43%"}, {"smiles": "O=[N+]([O-])c1ccc(O)c(/C=N/Nc2ccccc2[N+](=O)[O-])c1", "activity change": "active: -51.4%"}, {"smiles": "Cc1csc(CN(C)C(=O)CC2C(=O)NCCN2Cc2ccc(Cl)c(F)c2)n1", "note": "(stereo not given)", "activity change": "inactive: -1.24%"}, {"smiles": "CS(=O)(=O)N1CCCCC1c1cc(C(=O)Nc2ccccc2Cl)no1", "note": "(stereo not given)", "activity change": "inconclusive: -31.1%"}, {"smiles": "COC(=O)c1cccc(NC(=O)c2cccc(-n3cnnn3)c2)c1", "activity change": "inconclusive: -41.3%"}, {"smiles": "Nc1ccc(C(=O)Nc2ccc3nc(-c4cccnc4)[nH]c3c2)cc1", "activity change": "inconclusive: -31.8%"}, {"smiles": "Cc1ccccc1C(NC(=O)C1CCN(Cc2ccc(Oc3ccccc3)cc2)CC1)c1ccsc1", "note": "(stereo not given)", "activity change": "inconclusive: -36.3%"}]}]}
